According to PubChem BioAssay AID504937 (National Center for Advancing Translational Sciences (NCATS), 2011):
In all, about 340,000 compounds went through this assay and about 20 (0.006%) were called active. The inconclusive results got no clear call from the source; some entries with a clear call stand among them for comparison. The call rests on the fitted dose curve; in most records, active means well fitted inhibition curve with a large enough effect; inconclusive means small, poorly fitted or top-dose-only effect; inactive means no such curve, though single readings can be large or run the other way. Where the call is inconclusive, the potency comes from a doubtful curve fit.

Biological target: Sphingomyelin phosphodiesterase (Homo sapiens) (UniProt P17405)
Assay: Inhibitors of Secretory Acid Sphingomyelinase (S-ASM): qHTS
Settings: placental ASM, HMU-PC fluorogenic substrate (series up to 57.5 µM), 60 min; activity change, negative = inhibition: at the top concentration
Procedure, shortened: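 Human placenta-derived ASM preincubated with compound 10 min at room temperature, then reacted with 9 uM (final) fluorogenic HMU-PC substrate for 60 min at 37 C. Stop solution raises pH to 10; fluorescence read at Ex 386/Em 447 nm.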
Potency means the concentration at half of the fitted maximal effect; tags describe the fitted curve by direction and shape.

UniProt P17405, sequence (P17405 whole entry, looked up): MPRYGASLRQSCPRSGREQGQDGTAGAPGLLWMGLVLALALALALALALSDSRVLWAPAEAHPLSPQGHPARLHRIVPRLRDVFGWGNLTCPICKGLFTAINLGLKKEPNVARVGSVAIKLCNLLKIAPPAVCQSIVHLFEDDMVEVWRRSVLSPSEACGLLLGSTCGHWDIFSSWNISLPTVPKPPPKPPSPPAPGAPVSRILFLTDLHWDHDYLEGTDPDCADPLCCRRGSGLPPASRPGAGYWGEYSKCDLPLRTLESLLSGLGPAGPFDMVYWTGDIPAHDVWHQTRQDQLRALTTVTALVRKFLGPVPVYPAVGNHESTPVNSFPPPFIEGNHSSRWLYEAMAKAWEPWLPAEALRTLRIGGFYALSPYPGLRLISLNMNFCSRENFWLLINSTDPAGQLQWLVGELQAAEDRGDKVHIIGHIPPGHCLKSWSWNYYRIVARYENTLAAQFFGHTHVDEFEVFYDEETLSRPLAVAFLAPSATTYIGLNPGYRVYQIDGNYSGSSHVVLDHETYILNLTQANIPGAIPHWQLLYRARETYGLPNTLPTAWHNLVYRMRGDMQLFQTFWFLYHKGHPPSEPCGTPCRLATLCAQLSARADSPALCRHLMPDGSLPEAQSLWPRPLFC

| Structure (SMILES) | activity change, negative = inhibition | Potency |
| --- | --- | --- |
| Cc1ccc(S(=O)(=O)N2CCN(CC(O)COc3ccccc3)CC2)cc1 (stereo not drawn) | inactive: 3.56% |  |
| Cc1ccc(-c2nn(-c3ccccc3)cc2C=C2C(=O)CC(C)(C)CC2=O)cc1 | inactive: -8.55% |  |
| CCO[C@H]1OC(C(=O)Nc2ccccc2)=C[C@@H](c2ccc(C(F)(F)F)cc2)[C@@H]1CCCO |  | inconclusive: 112 µM [inhibitor, single point] |
| O=C(NN1C(=O)/C(=C\c2ccc(O)c([N+](=O)[O-])c2)SC1=S)c1ccccc1Cl |  | inconclusive: 50.1 µM [inhibitor, partial curve, poor fit] |
| O=C(O)CSc1cc(NS(=O)(=O)c2ccc(Cl)cc2)c2ccccc2c1O |  | inconclusive: 89.1 µM [inhibitor, partial curve, poor fit] |
| O=C1C2=C(NC(=S)NC2c2ccc(Cl)cc2)NC(c2ccc(Cl)cc2)N1c1ccc(Cl)cc1 (stereo not drawn) |  | inconclusive: 79.4 µM [inhibitor, single point] |
| Cc1nn(-c2cccc(Cl)c2)c2nc(C(F)(F)F)[nH]c(=O)c12 | inactive: 4.5% |  |
| CC1O[C@@H](O[C@H](C)CC[C@@H](C)O)C(O)C[C@H]1O (stereo partly drawn) | inactive: -0.11% |  |
| Cc1ccc(-c2nc3cccnc3o2)cc1NC(=O)COc1ccc(C(C)(C)C)cc1 |  | inconclusive: 112 µM [inhibitor, partial curve, poor fit] |
| Cc1sc(NC(=O)CN2CCOCC2)nc1-c1ccc2c(c1)CCN2S(=O)(=O)c1ccccc1 |  | inconclusive: 355 µM [inhibitor, partial curve, poor fit] |
| Cc1ccc(-c2csc(NC(=O)CSc3nc4ccccc4c(=O)n3CCCN(C)C)n2)cc1 |  | inconclusive: 79.4 µM [inhibitor, partial curve] |
| Cc1cc(SCC(=O)c2ccc(Cl)cc2)nc(=O)[nH]1 | inactive: 13.2% |  |
| COc1ccc(C2CC(=O)C(CS(=O)(=O)c3ccccc3)C(=O)C2)cc1 (stereo not drawn) |  | inconclusive: 2.24 µM [inhibitor, full curve, poor fit] |
| CCc1ccc(OCC(=O)N/N=C/c2cc([N+](=O)[O-])ccc2N2CCOCC2)cc1 |  | inconclusive: 112 µM [inhibitor, partial curve, poor fit] |
| COc1ccc(C2=Nn3c(nnc3-c3ccccc3F)SC2)cc1OC1CCCC1 |  | inconclusive: 112 µM [inhibitor, partial curve, poor fit] |
| Cc1nc(-c2ccc(F)cc2)c(CC(=O)N(C)CC(=O)Nc2ccc(Cl)c(C(F)(F)F)c2)s1 |  | inconclusive: 112 µM [inhibitor, partial curve, poor fit] |
| COc1cc(C(=S)N2CCOCC2)ccc1OC(=O)c1cc([N+](=O)[O-])cc([N+](=O)[O-])c1 | inactive: 3.38% |  |
| O=C(Nc1ccc(O)cc1)c1cccc(Oc2ccc([N+](=O)[O-])cc2)c1 |  | inconclusive: 251 µM [inhibitor, partial curve, poor fit] |
| CCOc1ccc(/C=C2\SC(=S)N(NS(=O)(=O)c3ccccc3)C2=O)cc1OC |  | inconclusive: 89.1 µM [inhibitor, single point] |
| CC(C)[C@H](CN1CCC[C@H]1CN1C(N)=NC[C@@H]1Cc1ccccc1)N1C[C@@H](Cc2ccccc2)N(CCc2ccc(Cl)c(Cl)c2)C1=N |  | inconclusive: 200 µM [inhibitor, partial curve, poor fit] |

| Structure (SMILES) | activity change, negative = inhibition | Potency |
| --- | --- | --- |
| CC1Sc2ccc(S(=O)(=O)N3CCC(C(=O)Nc4ccc(Cl)cc4)CC3)cc2NC1=O (stereo not drawn) |  | inconclusive: 112 µM [inhibitor, partial curve] |
| CCc1cc2c(-c3ccccc3)cc(=O)oc2cc1OC(C)C(C)=O (stereo not drawn) |  | inconclusive: 1120 µM [inhibitor, partial curve, poor fit] |
| CC1=Nc2ccccc2N=C(NC(=O)c2ccccc2)C1c1ccc(Cl)cc1 (stereo not drawn) |  | inconclusive: 70.8 µM [inhibitor, partial curve] |
| COc1ccccc1N1CCN(S(=O)(=O)CCNC(=O)CCCc2ccccc2)CC1 | inactive: -5.7% |  |
| COc1ccccc1OCC(=O)Nn1c(=S)[nH]c2ncccc2c1=O | inactive: -3.22% |  |
| Cc1cccc2cc3c(N)c(C(=O)N4CCCc5ccccc54)sc3nc12 |  | inconclusive: 63.1 µM [inhibitor, partial curve] |
| Cc1ccc(Nc2ccc(S(=O)(=O)N3CCOCC3)cc2[N+](=O)[O-])c(C)c1 |  | inconclusive: 316 µM [inhibitor, partial curve, poor fit] |
| COc1cccc(-c2csc(N3CCN(C(=O)Nc4ccccc4Cl)CC3)n2)c1 |  | inconclusive: 2820 µM [inhibitor, partial curve, poor fit] |
| O=C(CCc1[nH]c2ccccc2c1Sc1ccccc1)NCCO | inactive: 6.59% |  |
| CCn1cc([N+](=O)[O-])c(C(=O)N2N=C(c3ccc(O)c(OC)c3)CC2c2ccccc2O)n1 (stereo not drawn) |  | inconclusive: 200 µM [inhibitor, partial curve, poor fit] |
| Clc1ccccc1-c1nnc2sc(C3COc4ccccc4O3)nn12 (stereo not drawn) |  | inconclusive: 794 µM [inhibitor, partial curve, poor fit] |
| Cc1nc(-c2cc(-c3nc(-c4ccc(C(C)(C)C)cc4)no3)no2)cs1 |  | inconclusive: 355 µM [inhibitor, partial curve, poor fit] |
| Clc1ccc(-c2n[nH]c3c2CCC3)cc1Cl |  | inconclusive: 79.4 µM [inhibitor, single point] |
| Cc1ccccc1C(=O)Nc1ccc(-c2nnc(SC(C)C(=O)O)n2C)cc1 (stereo not drawn) | inactive: -0.193% |  |
| Cn1cnnc1Sc1ccc(/C=C/C(=O)c2ccc(O)cc2)cc1[N+](=O)[O-] |  | inconclusive: 200 µM [inhibitor, partial curve, poor fit] |
| O=C(C[C@H]1C[C@H](C(=O)N2CCCCC2)[C@@]2(CCc3ccccc3)c3[nH]c4cc(-c5ccco5)ccc4c3CCN2C1=O)NCc1ccco1 |  | inconclusive: 15.8 µM [inhibitor, partial curve, poor fit] |
| COc1ccccc1C1CCN(c2ccc([N+](=O)[O-])c(OC)c2)CC1 |  | inconclusive: 398 µM [inhibitor, partial curve, poor fit] |
| CCOc1cc(/C=C2\SC(=S)N(NS(=O)(=O)c3ccc(C)cc3)C2=O)ccc1O |  | inconclusive: 89.1 µM [inhibitor, single point] |
| O=C(CC1SC(=Nc2ccccc2)N(Cc2ccccn2)C1=O)Nc1cccc(Cl)c1 (stereo not drawn) |  | inconclusive: 79.4 µM [inhibitor, single point] |
| Cc1cc(Br)cc(Br)c1OCC(=O)NNC(=O)c1ccoc1C | inactive: -3.89% |  |

| Structure (SMILES) | activity change, negative = inhibition | Potency |
| --- | --- | --- |
| O=C(Nc1cccc(S(=O)(=O)Nc2ccc(Cl)cc2)c1)c1ccc(Cl)nc1 |  | inconclusive: 79.4 µM [inhibitor, single point] |
| CCOC(=O)CC1C(=O)NCCN1c1nc2c(C)cccn2c(=O)c1/C=C1\SC(=S)N(C(C)CC)C1=O (stereo not drawn) |  | inconclusive: 112 µM [inhibitor, single point] |
| CCCCCCCCOc1ccc(C2CC(=O)NC2=O)cc1 (stereo not drawn) |  | inconclusive: 251 µM [inhibitor, partial curve, poor fit] |
| CC1=C(C(=O)Nc2ccccc2)C(c2ccc(C)o2)n2c(s/c(=C\c3ccco3)c2=O)=N1 (stereo not drawn) |  | inconclusive: 316 µM [inhibitor, partial curve, poor fit] |
| O=C(Nc1ccc2oc(=O)ccc2c1)c1cc([N+](=O)[O-])ccc1N1CCOCC1 |  | inconclusive: 251 µM [inhibitor, partial curve, poor fit] |
| Cc1cccc(-c2c3c(=O)n(C)c(=O)n(C)c3cn2C2CCCCC2)c1 |  | inconclusive: 79.4 µM [inhibitor, single point] |
| COC(=O)c1ccc(C23CC4(C2)[C@H](CN(C)[C@@H]4c2ccccc2)C3c2ccc(C(F)(F)F)cc2)cc1 (stereo partly drawn) |  | inconclusive: 89.1 µM [inhibitor, single point] |
| O=C(Nc1ccc(NS(=O)(=O)c2ccccc2)c(Cl)c1)c1ccccc1 |  | inconclusive: 112 µM [inhibitor, partial curve, poor fit] |
| Cc1ccc2nc(Cl)c(CN(Cc3cccs3)C(=O)C3CC3)cc2c1 |  | inconclusive: 316 µM [inhibitor, partial curve, poor fit] |
| O=C(COc1ccc(Cl)cc1)N1CCN(c2ccc([N+](=O)[O-])c(N3CCOCC3)c2)CC1 |  | inconclusive: 100 µM [inhibitor, partial curve, poor fit] |
| CN(C)S(=O)(=O)c1cccc(NC(=O)c2ccc3nccnc3c2)c1 | inactive: 1.28% |  |
| Cc1cc(C)cc(Oc2nc(-c3ccccc3)cc(C)c2S(C)(=O)=O)c1 |  | inconclusive: 112 µM [inhibitor, partial curve, poor fit] |
| CNC(=O)CN1C(=O)NC(c2ccccc2)(c2ccccc2)C1=O |  | inconclusive: 178 µM [inhibitor, partial curve, poor fit] |
| Cc1ccccc1NCC(=O)N/N=C\C=C\c1cccc([N+](=O)[O-])c1 |  | inconclusive: 200 µM [inhibitor, partial curve, poor fit] |
| CC(Nc1nc(-c2ccc3c(c2)NC(=O)CO3)cs1)c1ccccc1 (stereo not drawn) |  | inconclusive: 2510 µM [inhibitor, partial curve, poor fit] |
| COc1ccc(C2/C=C\CN(C(=O)C3CCCC3)CC(=O)N2Cc2ccc(F)cc2)cc1 (stereo not drawn) | inactive: -7.92% |  |
| COc1ccc(Nc2nc(N)c([N+](=O)[O-])c(NC3CCCCC3)n2)cc1 |  | inconclusive: 70.8 µM [inhibitor, single point] |
| O=c1[nH]n(-c2ccc([N+](=O)[O-])cc2)c(=O)c2ccccc12 |  | inconclusive: 79.4 µM [inhibitor, single point] |
